# Screen size: about 48,000 compounds; about 450 (0.94%) were called active. About 19% were inconclusive and are not listed. Calls follow the shape of the dose curve; as a rule, active = well fitted inhibition curve with a large enough effect; inconclusive = small, poorly fitted or top-dose-only effect; inactive = no such curve, though single readings can be large or run the other way. This is one part of the list.
# Test: Primary qHTS for Identification of Small Molecule Inhibitors of Huntingtin Promoter Activity; also: nearly all actives have a fitted effect of over 50% in size
# Conditions: HEK293 HTT promoter firefly luciferase reporter (activity 0% = vehicle and -100% = no light), 24 h; series mostly up to 57.5 µM; activity change, negative = inhibition: at the top concentration
# Summary of the method: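 Firefly luciferase signal from promoter-reporter HEK293 cells was scaled between vehicle (0%) and zero RLU (-100%). Compounds were tested at final concentrations of up to 57.5 uM over 24 h at 37 degrees C. PTC124 at 50 uM final served as control inhibitor.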
row,Structure (SMILES),"activity change, negative = inhibition"
1,NC(=O)c1ncn([C@@H]2O[C@H](CO)[C@@H](O)[C@H]2O)c1N,inactive: 0.972%
2,CC(=O)c1cccc(NC(=O)c2ccc(Cl)c(S(=O)(=O)N3CCOCC3)c2)c1,inactive: -22.4%
3,CCOC(=O)c1cc2c(=O)n3ccccc3nc2n(CCOC)c1=NC(=O)c1cc2ccccc2o1,inactive: -4.03%
4,c1ccc(N2CCN(Cc3nnc(-c4ccc5c(c4)OCO5)o3)CC2)cc1,inactive: -18.6%
5,CN(Cc1ccccc1)S(=O)(=O)c1nnc(NC(=O)c2ccccc2Cl)s1,inactive: -7.72%
6,COc1cccc(-c2ccc3c(N)c(C(=O)c4ccc(F)cc4)sc3n2)c1,inactive: 17.8%
7,CC(NC(=O)CCCN1C(=O)CCn2nc(-c3cn(C)c4ccccc34)cc21)c1ccccc1 (stereo not drawn),inactive: -9.07%
8,NC(=O)c1ccc(-c2nc(-c3ccc4c(c3)OCO4)c(-c3ccccn3)[nH]2)cc1,inactive: -2.21%
9,CCOC(=O)c1c(C)oc2nc(C)nc(NCC3CCN(Cc4ccc(F)cc4)CC3)c12,inactive: 0%
10,COc1ccc(CNc2ncnc3c2cnn3-c2ccc(Cl)cc2)cc1,inactive: -11.8%
11,O=C(Nc1ccc(Cl)c(-c2nc3ccccc3o2)c1)c1cccc2c(Cl)cccc12,inactive: -15.3%
12,Cc1ccc(CSC2=Nc3ccccc3C3=NC(CCC(=O)NCc4cccs4)C(=O)N23)c(C)c1 (stereo not drawn),inactive: -5.45%
13,COc1ccc(Nc2ccc3cc(S(=O)(=O)N4CCCC4)ccc3n2)cc1OC,inactive: 9.34%
14,Fc1ccc(-c2nc3c4c(-c5ccccc5)c(-c5ccccc5)oc4ncn3n2)cc1,inactive: -16.7%
15,Cc1cc(N2CCN(C)CC2)nc2ccc(NC(=O)Nc3ccc(F)cc3F)cc12,inactive: 53.7%
16,Cc1ccc(NS(=O)(=O)c2c(C)nc3sccn3c2=O)c(Cl)c1,inactive: -14.5%
17,Cc1ccc(-n2c(=O)c3c(c4cc(C)ccc4n3C)n(CC(=O)NCC3CCCO3)c2=O)cc1 (stereo not drawn),inactive: 9.94%
18,CCC(=O)O[C@H]1[C@H](O[C@@H]2[C@@H](C)[C@H](O[C@H]3C[C@@](C)(OC)[C@@H](O)[C@H](C)O3)[C@@H](C)C(=O)O[C@H](CC)[C@@](C)(O)[C@H](O)[C@@H](C)C(=O)[C@H](C)C[C@@]2(C)O)O[C@H](C)C[C@@H]1N(C)C,inactive: -0.111%
19,COc1cc(Cl)c(NC(=O)CC(C)S(=O)(=O)c2cc3c(cc2C)NC(=O)CO3)c(OC)c1 (stereo not drawn),inactive: 0.115%
20,Cc1ccc(NC(=O)CSc2nncn3c2cc2sccc23)cc1F,inactive: 5.95%
21,CCCCOC(=O)c1ccc(NC2=NS(=O)(=O)c3ccccc32)cc1,inactive: -10%
22,Cc1cccc(NC(=O)CCn2nc(C)c3c(C)n(-c4ccccc4)nc3c2=O)c1C,inactive: -19.9%
23,Cc1ccc(-c2nc3n(n2)C(=O)CC(c2ccc(C)cc2)S3)cc1 (stereo not drawn),inactive: -0.25%
24,COc1ccc(S(=O)(=O)NCc2ccc3c(c2)CCN3C(C)=O)cc1OC,inactive: -18.3%

row,Structure (SMILES),"activity change, negative = inhibition"
1,Nc1ncnc2c1ncn2[C@@H]1O[C@H](COP(=O)(O)O)[C@@H](O)[C@H]1O,inactive: 17%
2,Cc1ccc(NC(=O)CCS(=O)(=O)c2ccc3nc(C)sc3c2)c(C)c1,inactive: -3.78%
3,COc1ccccc1N1CCN(c2c(CN3CCCC3)c(=O)oc3ccccc23)CC1,inactive: -5.18%
4,O=C(Nc1ccc(Cl)c(Cl)c1)N(Cc1c[nH]c2ccccc12)C1CCCCC1,inactive: 47.4%
5,CCOc1ccc(C(=O)Nc2ccc(NC(=O)c3ccccc3)cc2)cc1Br,inactive: -1.85%
6,COC(=O)c1ccc([C@H]2Nc3ccc(S(=O)(=O)Nc4ccc(F)cc4)cc3[C@H]3C=CC[C@H]32)cc1,inactive: -19.1%
7,Cc1ccc(OCC(=O)N(Cc2nc(-c3ccccc3)no2)C(C)C)cc1C,inactive: -27.1%
8,CN(C)c1ncc(C(=O)NCc2ccccc2Cl)cn1,inactive: -3.67%
9,CCOC(=O)CNC(=O)Nc1cc(C(=O)NCc2ccc(C(C)C)cc2)ccc1N1CCCC1,inactive: -31.6%
10,C[N+]12CCC(CC1)C(OC(=O)C(O)(c1ccccc1)c1ccccc1)C2 (stereo not drawn),inactive: -4.79%
11,Cc1cc(OCC(=O)Nc2sc3c(c2C#N)CCC(C)C3)ccc1Cl (stereo not drawn),inactive: -3.94%
12,Cc1ccc2[nH]c(=O)c3cc(C(=O)NCc4cccc(Cl)c4)sc3c2c1,inactive: -6.19%
13,COc1ccccc1-c1noc(CSc2nnc(-c3ccccc3)n2-c2ccc(C)c(C)c2)n1,inactive: -6%
14,CC(=O)c1ccc(NC(=O)CSc2nc(-c3ccccc3C)nc3c2c(=O)n(C)c(=O)n3C)cc1,inactive: -4.49%
15,O=C(CSc1ncc(-c2ccc(Cl)cc2)[nH]1)Nc1ccccc1F,inactive: -22.1%
16,CCOc1ccc(C(=O)c2cn(Cc3cccc(OC)c3)c3cc4c(cc3c2=O)OCO4)cc1,inactive: -28.6%
17,C[N+]1(C)CCC(=C(c2ccccc2)c2ccccc2)CC1,inactive: 8.31%
18,Cc1ccc2[nH]c(=O)c3cc(C(=O)NC4CCC(C)CC4)sc3c2c1 (stereo not drawn),inactive: 1.27%
19,CCCCN(C)C(=O)CSc1nc2ccccc2nc1Cc1ccc(C)cc1,inactive: -6.91%
20,COc1ccc(-n2c(=O)c3c4c(sc3n(C)c2=O)CN(C(C)=O)CC4)cc1,inactive: -13.4%
21,O=c1cc(-c2ccccc2)n2c(SCc3ccccc3Cl)nnc2[nH]1,inactive: -8.09%
22,COc1ccccc1C(=O)Nc1nnc2n1CCS2,inactive: 54%
23,COc1cccc2c1cc1c(=O)n(CC(=O)NCc3ccco3)nc(C)n12,inactive: -15.1%
24,Cc1c(Cl)cccc1NC(=O)CSc1nc(=O)n(Cc2ccco2)c2c1CCC2,inactive: -37.6%

# From PubChem BioAssay AID1508623 (National Center for Advancing Translational Sciences (NCATS), 2021)
